The supplement of paper PMC10338343
± gives the standard deviation. The list shows a part of the results, in another mix than the full data.

System: MIWI (PIWIL1) piRISC loaded with L1MC piRNA (30 nt)
Assay: pre-steady-state target cleavage rate (min^-1); MIWI and MILI are mouse PIWI proteins and EfPiwi is from a freshwater sponge; tags in brackets are library labels; higher = faster piRNA-guided slicing of the target
Settings: guide: L1MC piRNA 5'p-UAACUAAAUACUAUGCAAGCUGUAGGUCCU
Outline: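 The pre-steady-state cleavage rate was derived from a burst-and-steady-state fit of Cleave-'n-Seq data. For these assays, 1 nM active affinity-purified piRISC loaded with a single synthetic guide was mixed with […] a transcribed, DNA-blocked target RNA library in HEPES–potassium acetate buffer at 33 °C, with or without 500 nM GTSF1 partner protein, for 0–8 or 0–960 min. Sequencing counts of uncleaved targets were normalised to depth and to weakly complementary targets, and k3 was capped at 0.0001 min^-1 after three trials were pooled.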

[1] = auxiliary factor: 500 nM mouse GTSF1
[2] = auxiliary factor: none (no GTSF1)
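Further: 1 nM active piRISC with 0.1 nM target library at 33 °C single turnover.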

UCCUGGAUGUGCUUGCAUAGUAUUUUCUUA
pre-steady-state target cleavage rate [1]: 0.0246 ± 0.0091
pre-steady-state target cleavage rate [2]: 0.00388 ± 0.0027

UCCUGGAUGACCUUGCAUAGUAUUUAGUAA
pre-steady-state target cleavage rate [1]: 0.125 ± 0.021
pre-steady-state target cleavage rate [2]: 0.00482 ± 0.0019

UGGACCUACAGCUUGGUUAGUAUUUAGUUA
pre-steady-state target cleavage rate [1]: 1.28 ± 0.054
pre-steady-state target cleavage rate [2]: 0.0112 ± 0.0026

UCCUGGAUGAGCAUGCAAAGUAUUUAGUUA
pre-steady-state target cleavage rate [1]: 0.283 ± 0.024
pre-steady-state target cleavage rate [2]: 0.00587 ± 0.0031

UCGACCAACAGCUUGCAUAGUAUUUAGUAA
pre-steady-state target cleavage rate [1]: 1.2 ± 0.065
pre-steady-state target cleavage rate [2]: 0.0413 ± 0.0084

UCCUGGUACAGCUUGCAUAGUAUUUAUGUUA
pre-steady-state target cleavage rate [1]: 0.323 ± 0.056
pre-steady-state target cleavage rate [2]: 0.0226 ± 0.0064

UGGACCUACAGCUUGCAAAGUAUUUAGAAA
pre-steady-state target cleavage rate [1]: 0.299 ± 0.028
pre-steady-state target cleavage rate [2]: 0.00675 ± 0.0025

UCCUCCUACACCUUGCAAAGUAUUUAGUUA
pre-steady-state target cleavage rate [1]: 0.831 ± 0.043
pre-steady-state target cleavage rate [2]: 0.0328 ± 0.0065

UCCUGGAUGUGCUUGCAUAGUAUCUAGUUA
pre-steady-state target cleavage rate [1]: 0.259 ± 0.029
pre-steady-state target cleavage rate [2]: 0.0261 ± 0.0071

UCCUGGAUCAGCUUGCAUAGUUUUUAGUUA
pre-steady-state target cleavage rate [1]: 0.266 ± 0.018
pre-steady-state target cleavage rate [2]: 0.0393 ± 0.01

UCCUCCUACAGCUUUGCAUAGUAUUUAGUUA
pre-steady-state target cleavage rate [1]: 1.08 ± 0.033
pre-steady-state target cleavage rate [2]: 0.0172 ± 0.0036

UCCUGCUACACGUUGCAUAGUAUUUAGUAA
pre-steady-state target cleavage rate [1]: 0.475 ± 0.038
pre-steady-state target cleavage rate [2]: 0.00402 ± 0.0018

UCGACCCUACAGCUUGCAUAGUAUUUAGUUA
pre-steady-state target cleavage rate [1]: 1.33 ± 0.061
pre-steady-state target cleavage rate [2]: 0.0734 ± 0.012

UCCACCUACAGCUUGCAUAGUAUCUUAGUUA
pre-steady-state target cleavage rate [1]: 0.709 ± 0.057
pre-steady-state target cleavage rate [2]: 0.0225 ± 0.005

AGGACCUACAGCUUGCAUAGUUAUUAGUUA
pre-steady-state target cleavage rate [1]: 0.235 ± 0.023
pre-steady-state target cleavage rate [2]: 0.0166 ± 0.0039

UCCUCCUACAGUCUUGCAUAGUAUUUAGUUA
pre-steady-state target cleavage rate [1]: 0.834 ± 0.045
pre-steady-state target cleavage rate [2]: 0.0343 ± 0.0054

UCCUGGAUGUGCUUGCAUAGAAUUUACUUA
pre-steady-state target cleavage rate [1]: 0.0233 ± 0.0074
pre-steady-state target cleavage rate [2]: 0.00436 ± 0.0029

UGGACCUACAGCUUGCAUAGUAAUUAGUAA
pre-steady-state target cleavage rate [1]: 0.422 ± 0.041
pre-steady-state target cleavage rate [2]: 0.014 ± 0.0044

UCCUGGAACACCUUGCAUAGUAUUUUGUUA
pre-steady-state target cleavage rate [1]: 0.298 ± 0.051
pre-steady-state target cleavage rate [2]: 0.00453 ± 0.002

UCCUCCUACAGCAUGCAUUGUAUUUAGUUA
pre-steady-state target cleavage rate [1]: 0.83 ± 0.042
pre-steady-state target cleavage rate [2]: 0.009 ± 0.002

UCCUGGAACAGCUUGCAUAGUAUUUAGUA
pre-steady-state target cleavage rate [1]: 0.638 ± 0.042
pre-steady-state target cleavage rate [2]: 0.00904 ± 0.0031

AGGAGCUACAGCUUGCAAAGUAUUUAGUUA
pre-steady-state target cleavage rate [1]: 1.15 ± 0.065
pre-steady-state target cleavage rate [2]: 0.0443 ± 0.0091

AGGACCUACAGCUUGCAUAGUGUUUAGUUA
pre-steady-state target cleavage rate [1]: 1.05 ± 0.067
pre-steady-state target cleavage rate [2]: 0.0729 ± 0.015

UCCACCAUCAGCUUGCAUAGUAUUUAGAAA
pre-steady-state target cleavage rate [1]: 0.375 ± 0.037
pre-steady-state target cleavage rate [2]: 0.00627 ± 0.002

AGGACCUUCUGCUUGCAUAGUAUUUAGUUA
pre-steady-state target cleavage rate [1]: 1.24 ± 0.042
pre-steady-state target cleavage rate [2]: 0.082 ± 0.015

UCCUGGUAGAGGUUGCAUAGUAUUUAGUUA
pre-steady-state target cleavage rate [1]: 0.24 ± 0.033
pre-steady-state target cleavage rate [2]: 0.00375 ± 0.0022

UGGACCUACACCUAGCAUAGUAUUUAGUUA
pre-steady-state target cleavage rate [1]: 0.861 ± 0.048
pre-steady-state target cleavage rate [2]: 0.0198 ± 0.0034

UGGACCUACAGCUUGCAUAGUAUUAUCUAA
pre-steady-state target cleavage rate [1]: 0.125 ± 0.021
pre-steady-state target cleavage rate [2]: 0.00266 ± 0.0026

UCCACCUACACCUUCCAUAGUAUUUAGUUA
pre-steady-state target cleavage rate [1]: 0.0317 ± 0.013
pre-steady-state target cleavage rate [2]: 0.00281 ± 0.0021

UCCUGCUACAGCUUGCAUACUAUUUAGAUA
pre-steady-state target cleavage rate [1]: 0.145 ± 0.033
pre-steady-state target cleavage rate [2]: 0.00804 ± 0.0028

UCCUGGAACAGCUUGCAUAUUAUUUAGUUA
pre-steady-state target cleavage rate [1]: 0.953 ± 0.056
pre-steady-state target cleavage rate [2]: 0.0524 ± 0.014

UCCUGGAUGUCGUUCGCAUAGUAUUUAGUUA
pre-steady-state target cleavage rate [1]: 0.0145 ± 0.0039
pre-steady-state target cleavage rate [2]: 0.00279 ± 0.0023

AGGACCUACAGCUUGCUUAGUAUUAAGUUA
pre-steady-state target cleavage rate [1]: 0.559 ± 0.053
pre-steady-state target cleavage rate [2]: 0.0143 ± 0.0034

AGGACCUACAGCUAGCAUAGAAUUUAGUUA
pre-steady-state target cleavage rate [1]: 0.423 ± 0.03
pre-steady-state target cleavage rate [2]: 0.0103 ± 0.0035

UCCUGCUACAGCUAGCAUUGUAUUUAGUUA
pre-steady-state target cleavage rate [1]: 0.844 ± 0.057
pre-steady-state target cleavage rate [2]: 0.0073 ± 0.0027

UGGACCUACAGCUUGCUUAGUAUUUAGAUA
pre-steady-state target cleavage rate [1]: 0.477 ± 0.039
pre-steady-state target cleavage rate [2]: 0.0131 ± 0.0027

AGGACGUACAGCUUCCAUAGUAUUUAGUUA
pre-steady-state target cleavage rate [1]: 0.208 ± 0.024
pre-steady-state target cleavage rate [2]: 0.00869 ± 0.0017

AGGACGUUCAGCUUGCAUAGUAUUUAGUUA
pre-steady-state target cleavage rate [1]: 1.35 ± 0.063
pre-steady-state target cleavage rate [2]: 0.0669 ± 0.01

UCCUGGAUGAUGCUUGCAUAGUAUUUAGUUA
pre-steady-state target cleavage rate [1]: 0.659 ± 0.043
pre-steady-state target cleavage rate [2]: 0.0566 ± 0.01

UCCUGGAACAGCUUGCAUUGUAUUUUGUUA
pre-steady-state target cleavage rate [1]: 0.386 ± 0.028
pre-steady-state target cleavage rate [2]: 0.0138 ± 0.0053

UCCUGGUACAGGUUGCAUAGUAUAUAGUUA
pre-steady-state target cleavage rate [1]: 0.853 ± 0.2
pre-steady-state target cleavage rate [2]: 0.0121 ± 0.0037

UCCUGGAUCACCUUGCAAAGUAUUUAGUUA
pre-steady-state target cleavage rate [1]: 0.183 ± 0.022
pre-steady-state target cleavage rate [2]: 0.00642 ± 0.0025

UGGACCUACAGCUUGCAUAGUAUGUUAGUUA
pre-steady-state target cleavage rate [1]: 0.604 ± 0.04
pre-steady-state target cleavage rate [2]: 0.0192 ± 0.004

UCGACCAACAGCUUGCAUAGUAUUUUCAAA
pre-steady-state target cleavage rate [1]: 0.485 ± 0.049
pre-steady-state target cleavage rate [2]: 0.00402 ± 0.0023

UCCUGGAUGUCGUUGCAUAGUAUUUAGUUUA
pre-steady-state target cleavage rate [1]: 0.022 ± 0.0057
pre-steady-state target cleavage rate [2]: 0.00499 ± 0.003

UCCUGGAUGAGCUUGCAUAGUAAUUAGUAA
pre-steady-state target cleavage rate [1]: 0.337 ± 0.053
pre-steady-state target cleavage rate [2]: 0.00981 ± 0.004

UCCUGGAUGAUCUUGCAUAGUAUUUAGUUA
pre-steady-state target cleavage rate [1]: 0.509 ± 0.038
pre-steady-state target cleavage rate [2]: 0.0215 ± 0.0057

UCCUGGAUCAGGUUGCAUAGUAUAUAGUUA
pre-steady-state target cleavage rate [1]: 0.212 ± 0.025
pre-steady-state target cleavage rate [2]: 0.00568 ± 0.0023

UCCAGGUACAGCUUGCAUAGUAUUUAGUUA
pre-steady-state target cleavage rate [1]: 1.09 ± 0.04
pre-steady-state target cleavage rate [2]: 0.0764 ± 0.011

UGGACCUUCAGCUUGCAUAGUAUUUUCAAA
pre-steady-state target cleavage rate [1]: 0.217 ± 0.032
pre-steady-state target cleavage rate [2]: 0.00347 ± 0.0027

UCCUGGAUGUGCUCGCAUAGUAUUUAGUUA
pre-steady-state target cleavage rate [1]: 0.3 ± 0.029
pre-steady-state target cleavage rate [2]: 0.0185 ± 0.0045

UCCUCCUACAGGAAGCAUAGUAUUUAGUUA
pre-steady-state target cleavage rate [1]: 1.04 ± 0.065
pre-steady-state target cleavage rate [2]: 0.00536 ± 0.0019

UCCACCUACAGCCUGCAUAGUAUUUAGUUA
pre-steady-state target cleavage rate [1]: 1.15 ± 0.033
pre-steady-state target cleavage rate [2]: 0.0634 ± 0.01

UCCUGGUACAGCUUGCAUACUAUAUAGUUA
pre-steady-state target cleavage rate [1]: 0.163 ± 0.035
pre-steady-state target cleavage rate [2]: 0.00542 ± 0.0028

UCCACCUUCAGCUUGCAUAGAAUUUAGUUA
pre-steady-state target cleavage rate [1]: 0.277 ± 0.043
pre-steady-state target cleavage rate [2]: 0.0115 ± 0.0024

UCCACCUACAGCUUGCAUUGAAUUUAGUUA
pre-steady-state target cleavage rate [1]: 0.198 ± 0.019
pre-steady-state target cleavage rate [2]: 0.00668 ± 0.002

UCCUGCUACUCCUUGCAUAGUAUUUAGUAA
pre-steady-state target cleavage rate [1]: 0.305 ± 0.026
pre-steady-state target cleavage rate [2]: 0.0074 ± 0.002

UCGACCUACAGCUAGCAUAGUAUUUAGUAA
pre-steady-state target cleavage rate [1]: 0.932 ± 0.058
pre-steady-state target cleavage rate [2]: 0.00995 ± 0.0034

UCGAGGUACAGCUUGCAUAGUAUUUUCAAA
pre-steady-state target cleavage rate [1]: 0.278 ± 0.038
pre-steady-state target cleavage rate [2]: 0.00215 ± 0.0021

UCGAGGUACAGCUUGCAUAGUAUUUAGUAA
pre-steady-state target cleavage rate [1]: 0.88 ± 0.079
pre-steady-state target cleavage rate [2]: 0.0304 ± 0.0047
